For 111 compounds, displacement results are on record in PubChem BioAssay AID1240 (Sanford-Burnham Center for Chemical Genomics, 2008).

The whole screen tested about 50,000 compounds, of which about 800 (1.6%) showed an effect of 50% or more. This is one part of the list.

The test has as its target Bcl-2-like protein 10 (Homo sapiens) (UniProt Q9HD36). As to the kind of experiment: TR3 peptide-Bcl-B binding displacers, biochemical primary FP assay, phenotype converters (AID 1240).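 Note: 0% = Bcl-B with tracer peptide and DMSO and 100% = tracer peptide lacking Bcl-B.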 The note with it: GST-Bcl-B / FITC-TR3 peptide fluorescence polarization; stronger effect = higher value; compound at 3.75 mg/L. A general note: In fluorescence polarisation assays a small probe gives low polarisation when free and higher when bound to something large.
Sequence of UniProt Q9HD36 (Q9HD36 whole entry, looked up): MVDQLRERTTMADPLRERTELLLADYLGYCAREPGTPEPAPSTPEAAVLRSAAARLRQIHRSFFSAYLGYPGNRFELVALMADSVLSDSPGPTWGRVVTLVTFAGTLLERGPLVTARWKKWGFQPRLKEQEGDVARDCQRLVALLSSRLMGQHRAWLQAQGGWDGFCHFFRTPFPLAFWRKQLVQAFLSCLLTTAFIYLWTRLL
Regarding `C/C(=N/O)c1ccc(NC2=C(N3CCCC3)C(=O)c3ccccc3C2=O)cc1`, the displacement was 12.1%. For `COc1ccccc1Cc1noc(-c2ccc(I)cc2)n1` the value was 4.3%. For `O=c1cc(N2CCOCC2)c2ccccc2s1` the value was -5.1%; for `CCC(CC)C(=O)Nc1nc2ccc(Cl)cc2s1`, -3.2%; for `COC(=O)C1=C(C)NC2=C(C(=O)CC(c3ccccc3)C2)C1c1cccc([N+](=O)[O-])c1` (stereo unspecified), 7.3%. To `COc1ccc(CN2CCN(C(=O)c3ccccc3F)CC2)cc1OCc1ccccc1` belongs 0.4%; to `Cc1cc(C(c2ccc(F)cc2)c2cc(C)c(NC(=O)c3ccccc3)c(C)c2)cc(C)c1NC(=O)c1ccccc1`, 12.4%; to `Cc1cc(C)c(C(=O)/C=C/c2ccc(Br)cc2)c(=O)[nH]1`, 6.5%. Regarding `N#Cc1c(NC(=O)COc2ccc(Cl)cc2)oc(-c2ccccc2)c1-c1ccccc1`, the displacement is -17.5%.

Take `CCOc1ccccc1NC(=O)c1ccc(I)cc1`: the displacement was 10.7%. For the compound `Fc1ccc(Nc2nc(-c3ccncc3)nc3ccccc23)cc1F`, the displacement was found to be 47.8%. To `O=C(Nc1ccccc1)c1ccccc1C(=O)N1CCCCC1` belongs 13.1%; to `O=S(=O)(NN=Cc1cn(-c2ccccc2)nc1-c1ccco1)c1ccccc1`, -6.7%; to `CCOc1ccc2cc(S(=O)(=O)NCC3CCCO3)ccc2c1` (stereo unspecified), -6%. To `Cc1ccc(NC(=O)CCCOc2ccc(Cl)cc2Cl)c(Br)c1` belongs 11.6%; to `Cc1ccc(NS(=O)(=O)c2ccc3c(c2)C(=NO)c2cc(S(=O)(=O)Nc4ccc(C)cc4)ccc2-3)cc1`, 8.6%. In the case of `O=C(NC12CC3CC(CC(C3)C1)C2)c1ccc(S(=O)(=O)N2CCOCC2)cc1`, the displacement is -5.3%. As for `O=C(O)CCN1C(=O)S/C(=C\c2ccccc2)C1=O`, the displacement amounted to 6.4%. To `O=C(NCc1ccccc1)/C(=C\c1ccc(-c2ccccc2)o1)NC(=O)c1ccccc1` belongs -11.9%; to `CCCCNCCCOc1ccc(Cl)cc1`, 2.8%. To `COc1ccc(C(=O)N/C(=C\c2cccc3ccccc23)C(=O)N2CCN(C)CC2)cc1OC` belongs 1.8%; to `CSc1ccc(Cl)c(C(=O)NCC(C)c2ccccc2)c1` (stereo unspecified), 0.9%. To `COc1cc(/C=C2/SC(=S)N(c3ccccc3)C2=O)ccc1OC(=O)c1cccs1` belongs 17.1%; to `Cc1ccc(-c2noc(CCc3ccccc3)n2)cc1`, 13.4%. `CN1C(=O)/C(=C\c2cc(Cl)ccc2OCc2ccccc2Cl)SC1=S`: the displacement was 10.8%. For `Oc1ccccc1/C=N/Nc1cc(N2CCCC2)nc(N2CCCC2)n1` the value was 29.3%; for `CCN(CC)C(=S)NC(=O)/C=C/c1ccc(OC)c(OC)c1`, 1.1%. As for `COc1ccc(C(NC(=O)c2ccccc2)c2c(O)ccc3ccccc23)cc1OC` (stereo unspecified), the displacement came out at 0.8%. On to `COC(=O)c1c(NC(=O)c2ccc(OCC(C)C)cc2)sc2c1CCC2`, for which the displacement was 1.7%.

`CCOc1ccccc1CN(CCc1ccc2c(c1)OCO2)Cc1ccncc1`: the displacement was determined as 0.4%. Consider `Cc1c(Cl)cccc1-c1ccc(C(=O)Nc2ccc3c4c(cccc24)CC3)o1`, for which the displacement is 14.7%. Turning to `COc1ccc(C(=O)Nc2ccc(O)c(-c3nc4cc(C)c(C)cc4o3)c2)cc1[N+](=O)[O-]`, the displacement is -2.9%. `CC(C)(C)OC(=O)NC(Cc1ccccc1)C(=O)O` (stereo unspecified): the displacement was determined as 3.4%. For `COc1ccc(NC(=O)N2CCN(c3ccccn3)CC2)cc1` the value was -5.1%. For `O=C(c1cccs1)N1CCN(c2cccc(Cl)c2)CC1` the value was -12%. On to `O=C1Oc2ccccc2N/C1=C/c1ccccc1`, for which the displacement is 0.6%. For `O=C(c1ccc(Cl)cc1Cl)N1CCN(c2cc(N3CCCCC3)c(F)cc2[N+](=O)[O-])CC1` the value was -4.2%; for `O=c1oc(-c2sc3ccccc3c2Cl)nc2ccccc12`, -40.6%.

Consider `COc1ccc(N2C(=O)NC(=O)/C(=C/c3ccc(-c4ccc([N+](=O)[O-])cc4)o3)C2=O)cc1`, for which the displacement stood at 46.2%. To `O=C1CSC(=S)N1c1ccc(Cl)cc1` belongs 18.2%; to `CCOC(=O)COc1c(Br)cc(/C=N/NC(=O)Nc2ccccc2)cc1OC`, 4.6%; to `COc1cc2c(cc1OC)C(C)=NC(C)(C)C2`, 8.4%.

Take `Cc1ccc(-n2c(C)nc(N)c2C(=O)c2ccccc2)cc1`: the displacement was -0.4%. With `CCC(=O)Nc1c(C)ccc2nsnc12`, the displacement is -7%. To `COc1ccc(CCN(C(C)=O)C2CC(=O)N(c3ccc(Cl)cc3)C2=O)cc1` (stereo unspecified) belongs -1.9%. For `NC(=O)c1ccccc1NC(=O)Cc1ccc([N+](=O)[O-])cc1`, the displacement worked out at 21.3%. Turning to `O=C(CN(Cc1ccccc1)S(=O)(=O)c1ccccc1)N/N=C/c1ccccc1F`, the displacement was 2.4%.

For `CCOC(=O)c1sc(C)c(C#N)c1N`, the displacement was 6.5%.

As to `COc1cc(/C=N\NC(=O)c2c(C)nc3sccn23)ccc1O`, the displacement is 3.3%. For `CCN1C(=O)/C(=C/c2nc3ccccc3c(=O)n2-c2cccc(OC)c2)c2ccccc21` the value was -5.7%.

As to `COc1ccc(/C=N/c2ncn[nH]2)cc1`, the displacement was found to be 2.1%. To `CCC(=O)NC(Nc1cc(C)ccn1)(C(F)(F)F)C(F)(F)F` belongs 10.6%; to `NNC(=O)COc1ccccc1-c1ccccc1`, -2.3%. For the compound `CN1C(=O)/C(=C/c2cccn2-c2cccc([N+](=O)[O-])c2)SC1=S`, the displacement stood at 27.1%. To `Cc1ccc(-n2[nH]c(C)c(C3SCc4cc(C)c(C)cc4CS3)c2=O)cc1` belongs -5.3%; to `COc1cc(/C=C2\SC(N3CCCCCC3)=NC2=O)cc(OC)c1OC`, -18.7%; to `O=C(NN1C(=O)c2ccccc2C1=O)c1ccc(Cl)c(Cl)c1`, -7.2%. For `Cc1ccc(C)c(OCc2nnc(NC(=O)c3cccs3)s2)c1` the value was 21.2%; for `COc1ccc(/C=C2\C(=O)NC(=O)N(c3ccc(Br)c(C)c3)C2=O)cc1`, -3%. Regarding `O=C(NCc1ccccc1)C(=O)NCc1ccncc1`, the displacement was -6%. With `O=C(NCc1ccco1)N1CCOCC1`, the displacement is -4%.

As for `COc1ccc(-c2c(C#N)c(N)nc3c2CC(C)CC3)cc1` (stereo unspecified), the displacement is -2.4%.

For `COc1ccc(NC(=O)COc2ccc(C)cc2C)cc1OC`, the displacement was found to be 2.4%. Take `CCOC(=O)C1(C)C=C(Nc2ccccc2)C(=O)N1c1ccccc1` (stereo unspecified): the displacement was -6%. For `CC(=O)NC1=NN(C(C)=O)C(c2cccc(Cl)c2)S1` (stereo unspecified) the value was -4%. To `O=C(Nc1ccccc1C(=O)NCCc1ccccc1)c1ccncc1` belongs 3.4%.

For the compound `CCOc1cccc(C(=O)Nc2nnc(-c3ccccc3C)s2)c1`, the displacement came out at 46.9%. For `CC(=O)C1C(=O)CC(C)(O)C(C(C)=O)C1c1ccc(N(C)C)cc1` (stereo unspecified) the value was 3%.

For the compound `COc1ccc(C(NC(=O)Cc2ccccc2)c2ccc(OC)cc2)cc1`, the displacement was -3%. For `COC(=O)c1c(NC(=O)C2CC2)sc2c1CCCCCC2` the value was -13.5%; for `CCc1cc(C(=O)N=Nc2c(O)[nH]c3ccccc23)c2ccccc2n1`, -1.7%. As to `O=C(Nc1ccc(N2CCOCC2)c(Cl)c1)c1ccc(Cl)cc1[N+](=O)[O-]`, the displacement was -7.2%. For `CC1CCc2c(sc(NC(=O)CC(c3ccccc3)c3ccccc3)c2C(N)=O)C1` (stereo unspecified) the value was 10.8%.

With `C=CCNC1=C(Cl)C(=O)N(c2cccc(Cl)c2Cl)C1=O`, the displacement came to 13.2%. For `COc1cc(/C=C2/SC(=S)NC2=O)ccc1OC(=O)c1ccccc1Br` the value was 3.3%; for `Cc1ccsc1/C=C1\C(=O)NC(=O)N(c2ccc(Cl)cc2)C1=O`, 18.5%; for `CCOc1ccc(C(=O)Nc2cc(=O)n(C)c(=O)n2C)cc1`, 12.2%.

As to `CC(=O)CCc1oc2c(Br)cc(Br)cc2c1-c1ccc(C)o1`, the displacement is -6.5%. For `C=CCNC(=O)c1ccc(-c2ccc([N+](=O)[O-])cc2)o1` the value was 16.8%.

In the case of `COc1ccc(OC(C)C(=O)Nc2cccc(OC)c2)cc1` (stereo unspecified), the displacement worked out at 7.7%. Regarding `CCc1nn2c(N)c(/C=C3/C=Nc4ccccc43)c(=O)nc2s1`, the displacement was 16.4%. To `COc1ccc(/C=C2/SC(=O)NC2=O)c2ccccc12` belongs -0.8%; to `COc1ccc(-c2cc(C(F)(F)F)n3nc(C(=O)NCCCn4ccnc4)c(Cl)c3n2)cc1`, 105%.

Take `CC(C)(C)c1cc(C(=O)N/N=C/c2ccccc2Cl)n[nH]1`: the displacement turned out to be 15.8%. For `CCc1ccc(-c2csc(NC(=O)C3C4CCC(C4)C3C(=O)O)n2)cc1` (stereo unspecified) the value was -7.2%; for `O=C(CCCN1C(=O)c2ccccc2C1=O)Nc1ccccc1C(=O)N1CCCCC1`, -2.2%. To `O=C(c1ccc(Br)cc1)c1ccc2c(c1)OCCO2` belongs 4.8%. Take `Cc1cc(C)c2nc3s/c(=C\c4cc5c(cc4Br)OCO5)c(=O)n3c2c1`: the displacement was -8.5%. As to `COC(=O)c1c(C)oc2cc(Br)c(OCC(=O)c3ccc(OC)cc3)cc12`, the displacement worked out at 14%. For `O=C1C(Cl)=C(Nc2ccc(F)cc2)C(=O)N1c1cccc(Cl)c1` the value was 8.9%; for `COc1ccccc1C(=O)N=Nc1c(O)n(C)c2ccccc12`, 7.1%; for `O=C(Nc1ccccc1)Nc1ccc(NC(=O)Nc2ccccc2)cc1`, 5.1%. To `O=C(/C=C\Nc1ccc2c(c1)OCO2)c1cccs1` belongs 5.1%; to `CCC(C(=O)Nc1ccc(OC)cc1OC)c1ccccc1` (stereo unspecified), 1.7%; to `COc1c(Cl)cc(-c2nc3cc(NC(=O)C(C)C)ccc3o2)cc1Cl`, -12.7%. As to `Cc1ccc(S(=O)(=O)NCCNc2ccc(Cl)cc2[N+](=O)[O-])cc1`, the displacement is 0.1%. As to `N#CCCS(=O)(=O)c1cc(Cl)ccc1Cl`, the displacement was -0.6%.

For the compound `COc1ccccc1CNC(=O)Cc1ccc(Cl)cc1`, the displacement came to 0.4%. For the compound `Cc1ccc(C2=C/C(=C/c3cc4c(cc3[N+](=O)[O-])OCO4)C(=O)O2)cc1`, the displacement is -7.1%. To `COc1ccc(C(=O)Nc2ccc(S(=O)(=O)Nc3nccnc3OC)cc2)cc1OC` belongs 6.3%; to `Cc1ccc(N2CC(C(=O)NCC3CCCO3)CC2=O)cc1` (stereo unspecified), 5.2%; to `O=C(Nc1cccc2c1C(=O)c1ccccc1C2=O)c1ccc(Br)cc1`, 1%. To `CC[n+]1c(/C=C/c2ccc(-c3ccc([N+](=O)[O-])cc3)o2)ccc2ccccc21` belongs -127%; to `C=C(C)Cn1c(=S)[nH]c2sc3c(c2c1=O)CC(C)(CC)OC3` (stereo unspecified), -11.5%. For `COC(=O)c1ccc(/C=N/NC(=O)CCC2C(=O)NN=C2C)cc1` (stereo unspecified) the value was -9.5%; for `O=C1N/C(=C/c2ccc(Br)cc2)C(O)=C1C=NCc1ccccc1`, -4.1%; for `COc1ccc(C(=O)N2CCN(C3C4CC5CC(C4)CC3C5)CC2)cc1` (stereo unspecified), 11.6%. As to `COc1ccc(OCC(=O)NNC(=O)c2ccccc2C)cc1`, the displacement is 2.6%. For `COc1ccc(CN2CCN(C(=O)c3cccc(Cl)c3)CC2)cc1OC` the value was -0.4%; for `CC/C(=C\C(=O)c1ccccc1)Nc1ccc(Br)cc1`, 0.3%; for `O=C(NCCO)/C(=C\c1ccc(Br)cc1)NC(=O)c1ccccc1`, -0.9%.
